# Source: the supplement of paper PMC8728848
# This is one part of the list.
# B1: CV-IIL (Chromobacterium violaceum) (protein)
# chain: AQQGVFTLPARINFGVTVLVNSAATQHVEIFVDNEPRAAFSGVGTGDNNLGTKVINSGSGNVRVQITANGRQSDLVSSQLVLANKLNLAVVGSEDGTDMDYNDSIVILNWPLG
# Experiments:
# Test in all cases: glycan array binding signal (z-score within array); higher = stronger binding
# Settings in all cases: glycan notation: IUPAC condensed, linker removed
# Fuc(a1-2)Gal = target: Fuc(a1-2)Gal
# How it was run: (§1)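 The Consortium for Functional Glycomics database supplied 3228 glycan arrays, of which those lacking an available protein sequence were dropped. The binding signal, a within-array Z-score, was averaged across arrays of the same protein sequence and across linkers. Negative scores can be read as non-binding.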
# Fuc(a1-2)Gal(b1-3)GalNAc = target: Fuc(a1-2)Gal(b1-3)GalNAc
# How it was run: as §1
# [1] = target: Fuc(a1-2)Gal(b1-3)GalNAc(b1-3)Gal
# How it was run: as §1
# [2] = target: Fuc(a1-2)Gal(b1-3)GalNAc(b1-3)Gal(a1-4)Gal(b1-4)Glc
# How it was run: as §1
# [3] = target: Fuc(a1-2)Gal(b1-3)GalNAc(b1-4)[Neu5Ac(a2-3)]Gal(b1-4)Glc
# How it was run: as §1
# Fuc(a1-2)Gal(b1-3)GlcNAc = target: Fuc(a1-2)Gal(b1-3)GlcNAc
# How it was run: as §1
# [4] = target: Fuc(a1-2)Gal(b1-3)GlcNAc(b1-3)Gal(b1-4)Glc
# How it was run: as §1
# [5] = target: Fuc(a1-2)Gal(b1-3)[Fuc(a1-4)]GlcNAc
# How it was run: as §1
# Fuc(a1-2)Gal(b1-4)Glc = target: Fuc(a1-2)Gal(b1-4)Glc
# How it was run: as §1
# Fuc(a1-2)Gal(b1-4)GlcNAc = target: Fuc(a1-2)Gal(b1-4)GlcNAc
# How it was run: as §1
# [6] = target: Fuc(a1-2)Gal(b1-4)GlcNAc(b1-3)Gal(b1-4)GlcNAc
# How it was run: as §1
# [7] = target: Fuc(a1-2)Gal(b1-4)GlcNAc(b1-3)Gal(b1-4)GlcNAc(b1-3)Gal(b1-4)GlcNAc
# How it was run: as §1
# [8] = target: Fuc(a1-2)Gal(b1-4)[Fuc(a1-3)]GlcNAc
# How it was run: as §1
# [9] = target: Fuc(a1-2)Gal(b1-4)[Fuc(a1-3)]GlcNAc(b1-3)Gal(b1-4)[Fuc(a1-3)]GlcNAc
# How it was run: as §1
# [10] = target: Fuc(a1-2)Gal(b1-4)[Fuc(a1-3)]GlcNAc(b1-3)Gal(b1-4)[Fuc(a1-3)]GlcNAc(b1-3)Gal(b1-4)[Fuc(a1-3)]GlcNAc
# How it was run: as §1
# Fuc(a1-2)GlcNAc = target: Fuc(a1-2)GlcNAc
# How it was run: as §1
# Fuc(a1-2)[Gal(a1-3)]Gal = target: Fuc(a1-2)[Gal(a1-3)]Gal
# How it was run: as §1
# [11] = target: Fuc(a1-2)[Gal(a1-3)]Gal(b1-3)GlcNAc
# How it was run: as §1
# [12] = target: Fuc(a1-2)[Gal(a1-3)]Gal(b1-4)Glc
# How it was run: as §1
# [13] = target: Fuc(a1-2)[Gal(a1-3)]Gal(b1-4)GlcNAc
# How it was run: as §1
# [14] = target: Fuc(a1-2)[Gal(a1-3)]Gal(b1-4)[Fuc(a1-3)]GlcNAc
# How it was run: as §1
# [15] = target: Fuc(a1-2)[Gal(a1-4)]Gal(b1-4)GlcNAc
# How it was run: as §1
# [16] = target: Fuc(a1-2)[GalNAc(a1-3)]Gal
# How it was run: as §1
# [17] = target: Fuc(a1-2)[GalNAc(a1-3)]Gal(b1-3)GlcNAc
# How it was run: as §1
# [18] = target: Fuc(a1-2)[GalNAc(a1-3)]Gal(b1-4)Glc
# How it was run: as §1
# [19] = target: Fuc(a1-2)[GalNAc(a1-3)]Gal(b1-4)GlcNAc
# How it was run: as §1
# [20] = target: Fuc(a1-2)[GalNAc(a1-3)]Gal(b1-4)[Fuc(a1-3)]GlcNAc
# How it was run: as §1
# [21] = target: Fuc(a1-2)[GalNAc(a1-4)]Gal(b1-4)GlcNAc
# How it was run: as §1
# [22] = target: Fuc(a1-2)[GalNAc(b1-3)]Gal
# How it was run: as §1
# Fuc(a1-3)GlcNAc = target: Fuc(a1-3)GlcNAc
# How it was run: as §1
# [23] = target: Fuc(a1-3)[Gal(b1-4)]GlcNAc
# How it was run: as §1
# [24] = target: Fuc(a1-3)[Gal(b1-4)]GlcNAc(b1-4)Gal(b1-4)[Fuc(a1-3)]GlcNAc
# How it was run: as §1
# [25] = target: Fuc(a1-3)[Gal(b1-4)]GlcNAc(b1-4)Gal(b1-4)[Fuc(a1-3)]GlcNAc(b1-4)Gal(b1-4)[Fuc(a1-3)]GlcNAc
# How it was run: as §1
# [26] = target: Fuc(a1-3)[Gal3S(b1-4)]GlcNAc
# How it was run: as §1
# [27] = target: Fuc(a1-3)[GalNAc(b1-4)]GlcNAc
# How it was run: as §1
# Fuc(a1-4)GlcNAc = target: Fuc(a1-4)GlcNAc
# How it was run: as §1
# Fuc(b1-3)GlcNAc = target: Fuc(b1-3)GlcNAc
# How it was run: as §1
# Gal(a1-2)Gal = target: Gal(a1-2)Gal
# How it was run: as §1
# Gal(a1-3)Gal = target: Gal(a1-3)Gal
# How it was run: as §1
# Gal(a1-3)Gal(b1-3)GlcNAc = target: Gal(a1-3)Gal(b1-3)GlcNAc
# How it was run: as §1
# Gal(a1-3)Gal(b1-4)Glc = target: Gal(a1-3)Gal(b1-4)Glc
# How it was run: as §1
# Gal(a1-3)Gal(b1-4)GlcNAc = target: Gal(a1-3)Gal(b1-4)GlcNAc
# How it was run: as §1
# [28] = target: Gal(a1-3)Gal(b1-4)[Fuc(a1-3)]GlcNAc
# How it was run: as §1
# Gal(a1-3)GalNAc = target: Gal(a1-3)GalNAc
# How it was run: as §1
# [29] = target: Gal(a1-3)[Gal(a1-4)]Gal(b1-4)GlcNAc
# How it was run: as §1
# Gal(a1-4)Gal(b1-4)Glc = target: Gal(a1-4)Gal(b1-4)Glc
# How it was run: as §1
# Gal(a1-4)Gal(b1-4)GlcNAc = target: Gal(a1-4)Gal(b1-4)GlcNAc
# How it was run: as §1
# Gal(a1-4)GlcNAc = target: Gal(a1-4)GlcNAc
# How it was run: as §1
# Gal(a1-6)Glc = target: Gal(a1-6)Glc
# How it was run: as §1
# Gal(b1-2)Gal = target: Gal(b1-2)Gal
# How it was run: as §1
# Gal(b1-3)Gal = target: Gal(b1-3)Gal
# How it was run: as §1
# Gal(b1-3)GalNAc = target: Gal(b1-3)GalNAc
# How it was run: as §1
# [30] = target: Gal(b1-3)GalNAc(b1-3)Gal(a1-4)Gal(b1-4)Glc
# How it was run: as §1
# [31] = target: Gal(b1-3)GalNAc(b1-4)Gal(b1-4)Glc
# How it was run: as §1
# [32] = target: Gal(b1-3)GalNAc(b1-4)[Neu5Ac(a2-3)]Gal(b1-4)Glc
# How it was run: as §1
# Gal(b1-3)GlcNAc = target: Gal(b1-3)GlcNAc
# How it was run: as §1
# [33] = target: Gal(b1-3)GlcNAc(b1-3)Gal(b1-4)Glc
# How it was run: as §1
# [34] = target: Gal(b1-3)GlcNAc(b1-3)Gal(b1-4)GlcNAc
# How it was run: as §1
# [35] = target: Gal(b1-3)[Fuc(a1-4)]GlcNAc
# How it was run: as §1
# [36] = target: Gal(b1-3)[Fuc(a1-4)]GlcNAc(b1-3)Gal(b1-4)GlcNAc
# How it was run: as §1
binder,measurement,setting,value
B1,glycan array binding signal (z-score),Fuc(a1-2)Gal,2.57
same,glycan array binding signal (z-score),Fuc(a1-2)Gal(b1-3)GalNAc,2.07
same,glycan array binding signal (z-score),[1],-0.367
same,glycan array binding signal (z-score),[2],1.26
same,glycan array binding signal (z-score),[3],1.33
same,glycan array binding signal (z-score),Fuc(a1-2)Gal(b1-3)GlcNAc,2.67
same,glycan array binding signal (z-score),[4],2.22
same,glycan array binding signal (z-score),[5],2.2
same,glycan array binding signal (z-score),Fuc(a1-2)Gal(b1-4)Glc,2.58
same,glycan array binding signal (z-score),Fuc(a1-2)Gal(b1-4)GlcNAc,2.98
same,glycan array binding signal (z-score),[6],2.62
same,glycan array binding signal (z-score),[7],2.31
same,glycan array binding signal (z-score),[8],2.21
same,glycan array binding signal (z-score),[9],2.16
same,glycan array binding signal (z-score),[10],1.65
same,glycan array binding signal (z-score),Fuc(a1-2)GlcNAc,1.5
same,glycan array binding signal (z-score),Fuc(a1-2)[Gal(a1-3)]Gal,-0.242
same,glycan array binding signal (z-score),[11],-0.474
same,glycan array binding signal (z-score),[12],-0.393
same,glycan array binding signal (z-score),[13],-0.476
same,glycan array binding signal (z-score),[14],-0.245
same,glycan array binding signal (z-score),[15],1.68
same,glycan array binding signal (z-score),[16],-0.456
same,glycan array binding signal (z-score),[17],-0.458
same,glycan array binding signal (z-score),[18],-0.406
same,glycan array binding signal (z-score),[19],-0.462
same,glycan array binding signal (z-score),[20],1.05
same,glycan array binding signal (z-score),[21],1.2
same,glycan array binding signal (z-score),[22],-0.486
same,glycan array binding signal (z-score),Fuc(a1-3)GlcNAc,0.447
same,glycan array binding signal (z-score),[23],-0.001
same,glycan array binding signal (z-score),[24],-0.118
same,glycan array binding signal (z-score),[25],0.341
same,glycan array binding signal (z-score),[26],-0.189
same,glycan array binding signal (z-score),[27],-0.076
same,glycan array binding signal (z-score),Fuc(a1-4)GlcNAc,1.12
same,glycan array binding signal (z-score),Fuc(b1-3)GlcNAc,-0.389
same,glycan array binding signal (z-score),Gal(a1-2)Gal,-0.5
same,glycan array binding signal (z-score),Gal(a1-3)Gal,-0.5
same,glycan array binding signal (z-score),Gal(a1-3)Gal(b1-3)GlcNAc,-0.496
same,glycan array binding signal (z-score),Gal(a1-3)Gal(b1-4)Glc,-0.489
same,glycan array binding signal (z-score),Gal(a1-3)Gal(b1-4)GlcNAc,-0.501
same,glycan array binding signal (z-score),[28],-0.214
same,glycan array binding signal (z-score),Gal(a1-3)GalNAc,-0.501
same,glycan array binding signal (z-score),[29],-0.501
same,glycan array binding signal (z-score),Gal(a1-4)Gal(b1-4)Glc,-0.499
same,glycan array binding signal (z-score),Gal(a1-4)Gal(b1-4)GlcNAc,-0.498
same,glycan array binding signal (z-score),Gal(a1-4)GlcNAc,-0.501
same,glycan array binding signal (z-score),Gal(a1-6)Glc,-0.498
same,glycan array binding signal (z-score),Gal(b1-2)Gal,-0.5
same,glycan array binding signal (z-score),Gal(b1-3)Gal,-0.5
same,glycan array binding signal (z-score),Gal(b1-3)GalNAc,-0.5
same,glycan array binding signal (z-score),[30],-0.501
same,glycan array binding signal (z-score),[31],-0.501
same,glycan array binding signal (z-score),[32],-0.472
same,glycan array binding signal (z-score),Gal(b1-3)GlcNAc,-0.501
same,glycan array binding signal (z-score),[33],-0.383
same,glycan array binding signal (z-score),[34],-0.499
same,glycan array binding signal (z-score),[35],2.27
same,glycan array binding signal (z-score),[36],0.055
